Assay results: PubChem BioAssay AID651820 (National Center for Advancing Translational Sciences (NCATS), 2012)
Where “and” joins values, the source holds several entries; their conditions need not be identical. Identical values can stand only once. The whole screen tested about 340,000 compounds, of which about 12,000 (3.5%) were called active. Inconclusive means that the source gave no clear call. Such entries were picked first, then a sample of the others. The call rests on the fitted dose curve; in most records, active means well fitted inhibition curve with a large enough effect; inconclusive means small, poorly fitted or top-dose-only effect, or another doubt; inactive means no such curve, though single readings can be large or run the other way. Potencies beside an inconclusive call are fits to weak or partial responses and may not hold up.

Experiment: qHTS Assay for Inhibitors of Hepatitis C Virus (HCV)
Conditions: Huh7.5.1 HCVcc-Cre (HCVcc is cell-culture hepatitis C virus) infection, luciferase reporter, 44 h; series mostly up to 41.8 µM
Summary of the method: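 Cells seeded at 1,000/well and cultured 4 h, then compounds added followed by HCVcc-Cre virus (~0.5 moi). After 44 h further culture, luciferase substrate was added, plates held 15 min at room temperature, and luminescence read for 15 sec.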
Potency means the concentration at half of the fitted maximal effect; tags describe the fitted curve by direction and shape.

Row | SMILES | Potency
1 | CCS(=O)(=O)N1CCC(C(=O)Nc2cccc(C(C)=O)c2)CC1 | inactive
2 | O=C1CC(C(=O)Nc2ccc(F)cc2)n2cnnc2N1 (stereo not given) | inconclusive: 3.16 µM [inhibitor, single point]
3 | Cc1cc(C)c(NS(=O)(=O)c2ccc(NC(=O)CCC(=O)O)cc2)c(C)c1 | inactive
4 | C/C(=N\NC(=O)c1cccc(S(=O)(=O)N2CCCC2)c1)c1ccc(OCC(=O)N(C)C)cc1 | inconclusive: 8.91 µM [inhibitor, partial curve, poor fit]
5 | CC(=O)Nc1cccc(NC(=O)CSc2ncc(C(=O)Nc3ccccc3)c(=O)n2C)c1 | active: 11.2 µM
6 | CCCCCCN1C2=NCCCN2c2ccccc21 | inconclusive: 10 µM [inhibitor, partial curve]
7 | C[C@@H]1NC(=O)/C(=C\c2ccccc2Br)NC1=O | inactive
8 | COc1ccccc1Nc1nc(-c2cccs2)cs1 | inconclusive: 31.6 µM [inhibitor, single point]
9 | S=c1[nH]c2ccccc2n2cccc12 | inconclusive: 22.4 µM [inhibitor, single point]
10 | O=C(CCN1CCCCC1)N/N=C/c1ccc(Br)cc1 | inconclusive: 12.6 µM [inhibitor, single point]
11 | CCN(CC)c1ccc2c(C)c(CO)c(=O)oc2c1 | inconclusive: 11.2 µM [inhibitor, partial curve]
12 | O=C(Nc1cccc(Cl)c1)c1cc(S(=O)(=O)N2CCOCC2)cs1 | inconclusive: 5.01 µM [inhibitor, full curve]
13 | COCC(=O)Nc1ccc2c(c1)OCC(=O)N2Cc1ccc(C)cc1 | inactive
14 | CCn1c2ccccc2c2cc(NC(=O)COC(=O)c3cc(Cl)c(N)cc3OC)ccc21 | inconclusive: 7.94 µM [inhibitor, partial curve]
15 | CC(=O)c1ccc(-c2nnc(CCC(=O)N(C)Cc3c(C)nc4ccccn34)o2)s1 | inconclusive: 28.2 µM [inhibitor, single point]
16 | O=C(Nc1ccc(F)cc1)Nc1ccccc1N1CCCCC1 | active: 11.2 µM
17 | CCCC1S/C(=N/N=C/c2cccs2)NC1=O (stereo not given) | inconclusive: 31.6 µM [inhibitor, single point]
18 | CCOC(=O)Cc1csc(NC(=O)/C=C/c2ccco2)n1 | inactive
19 | CC(=O)c1c(C)[nH]c(C(=O)OCC(=O)Nc2cc(Cl)ccc2[N+](=O)[O-])c1C | active: 10 µM
20 | CN(c1ccccc1)S(=O)(=O)c1ccc(NC(=O)c2ccccc2)cc1 | inconclusive: 31.6 µM [inhibitor, single point]
21 | CC[n+]1c(/C=C/C=C/c2ccc(N(C)C)cc2)sc2ccccc21 | active: 2.82 µM
22 | Cc1ccc(-n2c(SCC(=O)N3CC(=O)Nc4ccccc43)nc3ccccc3c2=O)cc1 | inactive
23 | CCN(CC)c1ccc(NC(=O)CSc2nc3ccccc3c(=O)n2-c2cc(S(=O)(=O)N(C)C)ccc2C)cc1 | inconclusive: 0.631 µM [inhibitor, full curve]

Row | SMILES | Potency
24 | COc1ccc(Br)cc1-c1noc(-c2ccncc2)n1 | inconclusive: 3.16 µM [inhibitor, full curve, poor fit]
25 | Cc1ccc(NC(=S)Nc2cccc(S(=O)(=O)Nc3c(C)n(C)n(-c4ccccc4)c3=O)c2)cc1 | inactive
26 | O=C1NC(=S)N/C1=C/c1cccn1-c1ccc([N+](=O)[O-])cc1 | inactive
27 | O=C(CCl)N1c2ccccc2Oc2ccc3ccccc3c21 | inconclusive: 12.6 µM [inhibitor, single point]
28 | COc1cc(O)c(C(=O)CC(=O)c2ccncc2)c(OC)c1 | inconclusive: 15.8 µM [inhibitor, partial curve]
29 | COc1ccc(C)cc1S(=O)(=O)N(CC(=O)Nc1ccc2c(c1)OCCO2)Cc1ccccc1 | inconclusive: 31.6 µM [inhibitor, single point]
30 | Cc1cc(C)c(OCC(O)CNC(C)(C)C)c(C)c1 (stereo not given) | inconclusive: 10 µM [inhibitor, partial curve]
31 | O=[N+]([O-])c1cccc(S(=O)(=O)NCc2ccncc2)c1 | active: 12.6 µM
32 | COc1ccc(OCc2cc(/C=N\NC(=O)c3ccccc3)ccc2OC)cc1 | inconclusive: 10 µM [inhibitor, partial curve]
33 | O=C(Nc1ccc2c(c1)OCCO2)c1ccc2ccccc2n1 | inconclusive: 22.4 µM [inhibitor, single point]
34 | CCOC(=O)c1c(N)sc(C(=O)N2CCOCC2)c1C | inconclusive: 1.41 µM [inhibitor, partial curve]
35 | CCOc1ccc(C2C(C#N)=C(N)N3C(=C2C#N)Sc2ccccc23)cc1 (stereo not given) | inactive
36 | Oc1ccc(C[C@H]2CNC(=S)N2CC2CCCN2C[C@H](Cc2ccc(O)cc2)N2C[C@H](Cc3ccccc3)N(CC3CCCCC3)C2=S)cc1 (stereo not given in full) | active: 2.51 µM
37 | CN1CCN(CCCN2c3ccccc3Sc3ccc(Cl)cc32)CC1 | inconclusive: 2.51 µM [inhibitor, full curve] and inconclusive: 10 µM [inhibitor, single point]
38 | S=C(Nc1ccc(Cl)cc1Cl)NC1CCCCC1 | inconclusive: 12.6 µM [inhibitor, single point]
39 | Cc1ccc(O)c(C(CC(=O)NC2CCCCC2)c2ccccc2)c1 (stereo not given) | inconclusive: 8.91 µM [inhibitor, partial curve]
40 | CCN(CC)CCCNC(=O)C1c2cc(OC)c(OC)cc2C(=O)N(C)C1c1cccs1 (stereo not given) | inactive
41 | COc1ccc(NC(=O)CN(C)C(=O)c2ccc(S(=O)(=O)Nc3ccccc3F)cc2)cc1 | inactive
42 | O=C(Nc1cc(C(F)(F)F)ccc1N1CCOCC1)c1cccc(F)c1 | inconclusive: 8.91 µM [inhibitor, partial curve]
43 | Cc1noc(C)c1C(=O)OCC(=O)/C=C1\N(C)c2ccccc2C1(C)C | inconclusive: 7.94 µM [inhibitor, partial curve]
44 | CCOC(=O)c1c(NC(=O)COC(=O)c2ccc(O)cc2)sc(C(=O)NC)c1C | inconclusive: 7.08 µM [inhibitor, partial curve]
45 | COc1ccccc1CNC(=O)COC(=O)c1cccc(S(=O)(=O)N2CCOCC2)c1 | active: 11.2 µM
